Measurements taken from the RNAGym collection of RNA variant scans (doi:10.1073/pnas.2313332121).
Variants at the floor of the assay are shown more often than the library holds them.

B1: TPR 5TU (parent)
chain: GGAUCUUCUCGAUCUAACAAAAAAGACAAAUCUGCCACAAAGCUUGAGAGCAUCUUCGGAUGCAGAGGCGGCAGCCUUCGGUGGCGCGAUAGCGCCAACGUUCUCAACUAUGACACGCAAAACGCGUGCUCCGUUGAAUGGAGUUUAUCAUG

Variants of: B1
Assay: polymerase ribozyme fitness, log enrichment relative to wild type (log ratio); higher = more active; in vitro selection for triplet polymerase activity
In short: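 Mutant libraries for each subunit of a heterodimeric triplet polymerase ribozyme were made by PCR and then transcribed. Each library underwent one round of in vitro selection in triplicate: annealing with a biotinylated primer, the partner subunit and triplets, frozen incubation at −7 °C, gel excision of extended constructs, streptavidin-bead capture and RT-PCR. Input and output libraries were Illumina-sequenced, and only genotypes with ≥10 input reads and ≥1 read per output were kept. Fitness is the logarithm, base 2, of genotype enrichment over wild-type enrichment, computed from inverse-variance-weighted replicate averages.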

| Variant | polymerase ribozyme fitness (log ratio) |
| --- | --- |
| GGAUCUUCUCGAUCUAACAAAAAAGACAAAUCUGCCACAAAGCUUGCGAGCAUCUUCGGAUGCAGAGGCGGCAGCCUUCGGCGGCGCGAUAGCGCCUACGUUGUCAACUAUGACCCGCAAAACGCGUGCUCCGUUGAAUGGAGUUUAUCAUG | ≤ -4.2 |
| GGAUCUUCUCGAUCUAACAAAAAAGACAAAUCUGCCACAAAGCUUGCGAGCAUCUUCGGAUGCAGAGGCGGCAGCCUUCGGGGGCGCGAUAGCGCGAACGUUCUCAACUAUGACACGCAAAACGCGUGCUCCGUUGAAUCGAGUUUAUCAUG | ≤ -4.2 |
| GGAUCUUCUCGAUCUAACAAAAAAGACAAAUCUGCCACAAAGCUUGCGAGCAUCUUCGGAUGCAGAGGCGGCAGCCUUCGGUGGCGCGAUAGCGCCAACGUUCUCAACUAUGACACGCAAAACGCGUGCGCCGUUGAAUGGAGUUUAUCAUG | ≤ -4.2 |
| GGAUCUUCUCGAUCUAACAAAAAAGACAAAUCUGCCACAAAGCUUGGGCGCAUCUUCGGAUGCAGAGGCGGCAGCCUUCGGUGGCGCGAUAGCGCCAACGUUCUCAACUAUGACACGCAAAACGCGUGCUCCGUUGAAUGGAGUUUAUCAUG | ≤ -4.2 |
| GGAUCUUCUCGAUCUAACAAAAAAGACAAAUCUGCCACAAAGCUUGGGAGCGUCUUCGGAUGCAGAGGCGGCAGUCUACGGCGGCGCGAUUGCGCGACCGUUCUCAACUAUGACACGCAAAACGCGUGCUCCGUUGAAUGGAGUUUAUCAUG | ≤ -4.2 |
| GGAUCUUCUCGAUCUAACAAAAAAGACAAAUCUGCCACAAAGCUUGGGAGCGUCUCCGGAUGCAGAGGCGGCAGCCUUCGGUGGCGCAAUAGCGCCAACGUUGUCAACUAUGACACGCAAAACGCGUGCUCCGUUGAAUGGAGUUCAUCGUG | ≤ -4.2 |
| GGAUCUUCUCGAUCUAACAAAAAAGACAAAUCUGCCACAAAGCUUGGGAGCAUCUUCGGGUGCAUAGGCGGCAGCCUUCUGUGCCGCGAUAGCGCCAACGUUCUCAACUAUGACACGCAAAACGCGUGCUCCGUUGAAUGGAGUUUAUCAUG | ≤ -4.2 |
| GGAUCUUCUCGAUCUAACAAAAAAGACAAAUCUGCCACAAAGCUUGGGAGCAUCUUCGGUUGCAGAGGCGGCAGCCUUCGGUGGCUCGAUAGCGCCAACAUUCUCAAAUAUGACACGCAAAACGGGUGCUCCGUUGAAUGGAGUUUAUCAUG | ≤ -4.2 |
| GGAUCUUCUCGAUCUAACAAAAAAGACAAAUCUGCCACAAAGCUUGGGAGCAUCUUCGGAUGCCGACGCGGCAGCCGUCGGUGGCGCGAUAGCGCCAACGUUGUCAACUAUGACAGGCAAAACGCGUGCUCCGUAGGAUGGAGCUUAUCAUG | ≤ -4.2 |
| GGAUCUUCUCGAUCUAACAAAAAAGACAAAUCUGCCACAAAGCUUGGGAGCAUCUUCGGAUGCCGAGGCUGCAGCCUUCGGUGGUGCGAUAACGCCAACGUUCUCAACAAUGACACGCAAAACGCGUGCUCCGUUGAAUGGAGUUUAUCAUG | ≤ -4.2 |
| GGAUCUUCUCGAUCUAACAAAAAAGACAAAUCUGCCACAAAGCUUGGGAGCAUCUUCGGAUGCCGAGGCGGCAGCCUUCGGUGGCCCGAUAGAGCCAACGUUCUCAACUAUGACACGCAAAACGCGUGCUCCGUUCAUUGGACUUUAUCAUG | ≤ -4.2 |
| GGAUCUUCUCGAUCUAACAAAAAAGACAAAUCUGCCACAAAGCUUGGGAGGAUCUUCGGAUGCAGAGGCGGCAGCUUUCGGUGGCGUGAUAGCGCCAACGUUCGCAUCUAUGACACGCAAAACGCGUGCUCCGUUGAAUGGAGUUUAUCACG | ≤ -4.2 |
| GGAUCUUCUCGAUCUAACAAAAAAGACAAAUCUGCCACAAAGCUUGGGAGCAUCUUCGGAUGCAGAGGCGGCAGGCCUCGGUGGCGCGAUAGCGCCAACGUUCUCAACUAUGACACGGAAAACGCGUGCUCCGUUGAAUGGAGUUUAUCAUG | ≤ -4.2 |
| GGAUCUUCUCGAUCUAACAAAAAAGACAAAUCUGCCACAAAGCUUGGGAGCAUCUUCGGAUGCAGAGGCGGCAGCCUUCGGUGGGGCGAUAGCGCCAACUUUCUCAACUAUGACACGCAAAACGCGUGCUCCGUUGAAUGGAGUUUAUCAUG | ≤ -4.2 |
| GGAUCUUCUCGAUCUAACAAAAAAGACAAAUCUGCCACAAAGCUUGGGAGCAUCUUCGGAUGCAGAGGCGGCAGCCUUCGGUGGCGCGAUAGAGCAAACGUUCUCAACUAUGACACGCAAAACGCGUGCUCCGUUGAAUGGAGUUAAUCAUG | ≤ -4.2 |
| GGAUCUUCUCGAUCUAACAAAAAAGACAAAUCUGCCACAAAGCUUGGGAACUUCUUCGGAUGAAGAGGCGGCAGCCUUCGGUGGCGCGAUAGCGCCAACGUUCUCAACUAUGACACGCAAAACGCGUGCUCCGUUGAAUGGCGUUUAUCAUG | ≤ -4.2 |
| GGAUCUUCUCGAUCUAACAAAAAAGACAAAUCUGCCACAAAGCUUGGGACCAUCUUCGGAUGCAGAGGCGGCAGCCUUCGGUGGCGCGAUAGCGCCAAAGUUCUCAACUAUGACACGCAAAACGCGUGCUCCGUUGAAUCCAGUUUCUCAUG | ≤ -4.2 |
| GGAUCUUCUCGAUCUAACAAAAAAGACAAAUCUGCCACAAAGCUUGGGAGCAUCUUCCGAUGCAGAGGCGGCAGCCUUCGGUGGCGCAAUAGCGCCAACGUUCUCAACUAUGACACGCGAAACGCGUGGUCCGUUGAAUGGAGUUUAUCAUG | ≤ -4.2 |
| GGAUCUUCUCGAUCUAACAAAAAAGACAAAUCUGCCACAAAGCUUGGGAGCAUCUUCGAAUGCAGAGGCGGCAGCCUUCGGUGGCGCGAUAGCGCCAACGUUCUCAACUAUGACACGCAAAACGCGUGCUCCGUUGAAUGGAGUUUAUCAUG | 0.381 |
